For part of these data: What follows is the remainder of the data, with few or none of the hits. Inconclusive results are not listed. The entries are a selection whose mix differs from that of the whole data set. Activity calls are given as the source filed them. The calls were made as follows, unless noted: active = hit-call score of the fitted dose curve at least 0.9, where 1 is the maximum; inactive = score below 0.9.

Here are results for eight compounds from PubChem BioAssay (EPA / NIEHS).

Read-out in test [1]: Low-density lipoprotein receptor (LDLR), LDLR (gene 3949)
Kind of test: BSK_CASM3C_LDLR: BioMAP Diversity Plus: CASM3C Assay for Low-density lipoprotein receptor (LDLR) Biomarker Activity (AID 2283045).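 Also: LDLR protein level on the cell surface quantified by ELISA.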 To be noted: actives raise or lower the signal; primary human coronary artery smooth muscle cells.

A short description of test [2]: ATG_M_32_XSP2: Attagene TRANS-FACTORIAL Multi-Species (XSP2) HepG2 Assay for M19 Transcription Factor (Internal Marker) (AID 2283826; active = hit-call score of the fitted dose curve at least 0.9, where 1 is the maximum). In outline:
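Transfected HepG2 (multiplexed GAL4-UAS reporters), 24 h chemical exposure, 3 nM 6-alpha-fluorotestosterone + 1.5 nM norgestrel added. RNA → oligo(dT) RT → PCR → 6-FAM primer extension → HpaI cut → CE. Fitted upward vs DMSO.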

Read-out in test [3]: Urokinase-type plasminogen activator receptor (uPAR), PLAUR (gene 5329)
Kind of test: BSK_CASM3C_uPAR: BioMAP Diversity Plus: CASM3C Assay for Urokinase-type plasminogen activator receptor (uPAR) Biomarker Activity (AID 2283054).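 Also: cell-surface uPAR protein level quantified by ELISA.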 To be noted: actives raise or lower the signal; primary human coronary artery smooth muscle cells.

Read-out in test [4]: Matrix Metallopeptidase 1 (MMP1), MMP1 (gene 4312)
Kind of test: BSK_hDFCGF_MMP1: BioMAP Diversity Plus: hDFCGF Assay for Matrix Metallopeptidase 1 (MMP1) Biomarker Activity (AID 2283064). To be noted: actives raise or lower the signal; primary human foreskin fibroblasts. In outline:
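MMP1 levels quantified by ELISA 24 h after dosing human dermal fibroblast cultures, with parallel SRB total-protein staining for overt cytotoxicity. Data fitted in both directions against DMSO baseline.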

Test [5] deals with human Opioid Receptor Mu (Opiate Mu), OPRM1 (gene 4988) (UniProt P35372). The test is described as follows: NVS_GPCR_hOpiate_mu: NovaScreen (NVS) G Protein-Coupled Receptor Assay for human Opioid Receptor Mu (Opiate Mu) (AID 2283290; active = hit-call score of the fitted dose curve at least 0.9, where 1 is the maximum;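 also: hits lower bound tracer signal versus DMSO meaning displacement of the ligand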). In a few lines: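 Cell-free radioligand binding to membranes from CHO cells expressing the receptor; bound tracer measured by filter-based scintillation counting 2.5 hours after dosing. Loss of signal versus DMSO baseline reflects displacement; primary screen at 25 uM in duplicate, actives followed up in concentration series.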
Sequence of UniProt P35372 (P35372 whole entry, looked up): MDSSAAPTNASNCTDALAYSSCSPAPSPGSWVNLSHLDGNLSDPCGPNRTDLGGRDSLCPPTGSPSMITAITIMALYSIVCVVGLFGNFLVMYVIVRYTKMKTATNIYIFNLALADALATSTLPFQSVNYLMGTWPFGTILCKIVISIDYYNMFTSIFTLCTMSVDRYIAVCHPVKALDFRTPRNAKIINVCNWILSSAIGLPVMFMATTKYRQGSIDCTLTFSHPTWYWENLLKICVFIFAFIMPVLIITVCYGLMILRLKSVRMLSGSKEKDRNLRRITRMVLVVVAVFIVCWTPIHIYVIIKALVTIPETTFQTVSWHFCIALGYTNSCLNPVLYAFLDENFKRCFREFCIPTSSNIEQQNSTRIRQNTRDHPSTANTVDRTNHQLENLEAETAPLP

The target in test [6] is mouse Estrogen Receptor alpha (Era), Esr1 (gene 13982) (UniProt P19785). The test is described as follows: NVS_NR_mERa: NovaScreen (NVS) Nuclear Receptor Binding Assay for mouse Estrogen Receptor alpha (Era) (AID 2283378; active = hit-call score of the fitted dose curve at least 0.9, where 1 is the maximum;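 also: hit means loss of bound radioligand signal relative to DMSO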). In outline:
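Extracted mouse Era incubated with tritiated or iodinated radioligand plus test chemical, 18 h. Bound fraction separated on filters, counted by scintillation. DMSO = negative control/baseline; duplicate single-point at 25 uM, then concentration-response follow-up.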

Read-out in test [7]: matrix metalloproteinase-3 (MMP3), MMP3 (gene 4314)
Kind of test: LTEA_HepaRG_MMP3: Life Technologies and Expression Analysis (LTEA) Assay for matrix metalloproteinase-3 (MMP3) using HepaRG (AID 2283519). To be noted: actives raise or lower the signal; mRNA level, 48 h. In outline:
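Fluidigm-based TaqMan qRT-PCR, normalized to ACTB, GAPDH and POLR2A and fitted bidirectionally versus 0.5% DMSO, measured transcript levels. Treatment: duplicate 48 h exposures of HepaRG cells, ~100,000/well, to eight half-log concentrations topping at 100 uM.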

Read-out in test [8]: Pyruvate Dehydrogenase Kinase 4 (PDK4), PDK4 (gene 5166)
The test is described as follows: LTEA_HepaRG_PDK4: Life Technologies and Expression Analysis (LTEA) Assay for Pyruvate Dehydrogenase Kinase 4 (PDK4) using HepaRG (AID 2283525). To be noted: actives raise or lower the signal; mRNA level, 48 h. In a few lines:
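Readout is qRT-PCR of PDK4 transcript, normalized to three housekeeping genes, with bidirectional fitting against 0.5% DMSO vehicle. Differentiated HepaRG cells were treated 48 h in serum-free induction medium, duplicate wells, eight-point half-log series topping at 100 uM.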

Test [9] in a line: ACEA_AR_agonist_AUC_viability: ACEA Biosciences xCELLigence Real-Time Cell Analysis on Androgen Receptor Agonism for Viability (AID 2283775; active = hit-call score of the fitted dose curve at least 0.9, where 1 is the maximum;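 also: viability read 80 hours after compound addition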). In a few lines:
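Viability endpoint from xCELLigence impedance in 22Rv1 prostate cells at 80 h. Eight-point series, 100 uM maximum final.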

Read-out in the next test: CD40, CD40 (gene 958)
The test is described as follows: BSK_LPS_CD40: BioMAP Diversity Plus: LPS Assay for CD40 Biomarker Activity (AID 2283076). To be noted: actives raise or lower the signal; primary human HUVEC with PBMC. In outline:
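Cells were dosed, incubated 24 h, then assayed for CD40 by ELISA. Gain or loss of signal was analysed relative to DMSO controls. The culture paired human umbilical vein endothelium with peripheral blood mononuclear cells.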

Test [10] is described as follows: BSK_LPS_SRB: Viability Assessment in the BioMAP Diversity Plus: LPS Assay (AID 2283079).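 Also: total protein by sulforhodamine B absorbance as a cytotoxicity measure; measured one day after compound addition; fitted in both directions against DMSO so loss or gain of signal counts.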 To be noted: primary human HUVEC with PBMC. In outline: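 Readout is SRB absorbance at 560 nm (0.1% stain, TCA-fixed parallel cultures) as a total-protein cytotoxicity measure. Cells: primary human umbilical vein endothelium plus peripheral blood mononuclear cells, 24 h after chemical exposure; DMSO served as baseline.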

Read-out in test [11]: Fatty acid synthase (Homo sapiens) (UniProt P49327)
Sequence of UniProt P49327 (P49327 whole entry, looked up): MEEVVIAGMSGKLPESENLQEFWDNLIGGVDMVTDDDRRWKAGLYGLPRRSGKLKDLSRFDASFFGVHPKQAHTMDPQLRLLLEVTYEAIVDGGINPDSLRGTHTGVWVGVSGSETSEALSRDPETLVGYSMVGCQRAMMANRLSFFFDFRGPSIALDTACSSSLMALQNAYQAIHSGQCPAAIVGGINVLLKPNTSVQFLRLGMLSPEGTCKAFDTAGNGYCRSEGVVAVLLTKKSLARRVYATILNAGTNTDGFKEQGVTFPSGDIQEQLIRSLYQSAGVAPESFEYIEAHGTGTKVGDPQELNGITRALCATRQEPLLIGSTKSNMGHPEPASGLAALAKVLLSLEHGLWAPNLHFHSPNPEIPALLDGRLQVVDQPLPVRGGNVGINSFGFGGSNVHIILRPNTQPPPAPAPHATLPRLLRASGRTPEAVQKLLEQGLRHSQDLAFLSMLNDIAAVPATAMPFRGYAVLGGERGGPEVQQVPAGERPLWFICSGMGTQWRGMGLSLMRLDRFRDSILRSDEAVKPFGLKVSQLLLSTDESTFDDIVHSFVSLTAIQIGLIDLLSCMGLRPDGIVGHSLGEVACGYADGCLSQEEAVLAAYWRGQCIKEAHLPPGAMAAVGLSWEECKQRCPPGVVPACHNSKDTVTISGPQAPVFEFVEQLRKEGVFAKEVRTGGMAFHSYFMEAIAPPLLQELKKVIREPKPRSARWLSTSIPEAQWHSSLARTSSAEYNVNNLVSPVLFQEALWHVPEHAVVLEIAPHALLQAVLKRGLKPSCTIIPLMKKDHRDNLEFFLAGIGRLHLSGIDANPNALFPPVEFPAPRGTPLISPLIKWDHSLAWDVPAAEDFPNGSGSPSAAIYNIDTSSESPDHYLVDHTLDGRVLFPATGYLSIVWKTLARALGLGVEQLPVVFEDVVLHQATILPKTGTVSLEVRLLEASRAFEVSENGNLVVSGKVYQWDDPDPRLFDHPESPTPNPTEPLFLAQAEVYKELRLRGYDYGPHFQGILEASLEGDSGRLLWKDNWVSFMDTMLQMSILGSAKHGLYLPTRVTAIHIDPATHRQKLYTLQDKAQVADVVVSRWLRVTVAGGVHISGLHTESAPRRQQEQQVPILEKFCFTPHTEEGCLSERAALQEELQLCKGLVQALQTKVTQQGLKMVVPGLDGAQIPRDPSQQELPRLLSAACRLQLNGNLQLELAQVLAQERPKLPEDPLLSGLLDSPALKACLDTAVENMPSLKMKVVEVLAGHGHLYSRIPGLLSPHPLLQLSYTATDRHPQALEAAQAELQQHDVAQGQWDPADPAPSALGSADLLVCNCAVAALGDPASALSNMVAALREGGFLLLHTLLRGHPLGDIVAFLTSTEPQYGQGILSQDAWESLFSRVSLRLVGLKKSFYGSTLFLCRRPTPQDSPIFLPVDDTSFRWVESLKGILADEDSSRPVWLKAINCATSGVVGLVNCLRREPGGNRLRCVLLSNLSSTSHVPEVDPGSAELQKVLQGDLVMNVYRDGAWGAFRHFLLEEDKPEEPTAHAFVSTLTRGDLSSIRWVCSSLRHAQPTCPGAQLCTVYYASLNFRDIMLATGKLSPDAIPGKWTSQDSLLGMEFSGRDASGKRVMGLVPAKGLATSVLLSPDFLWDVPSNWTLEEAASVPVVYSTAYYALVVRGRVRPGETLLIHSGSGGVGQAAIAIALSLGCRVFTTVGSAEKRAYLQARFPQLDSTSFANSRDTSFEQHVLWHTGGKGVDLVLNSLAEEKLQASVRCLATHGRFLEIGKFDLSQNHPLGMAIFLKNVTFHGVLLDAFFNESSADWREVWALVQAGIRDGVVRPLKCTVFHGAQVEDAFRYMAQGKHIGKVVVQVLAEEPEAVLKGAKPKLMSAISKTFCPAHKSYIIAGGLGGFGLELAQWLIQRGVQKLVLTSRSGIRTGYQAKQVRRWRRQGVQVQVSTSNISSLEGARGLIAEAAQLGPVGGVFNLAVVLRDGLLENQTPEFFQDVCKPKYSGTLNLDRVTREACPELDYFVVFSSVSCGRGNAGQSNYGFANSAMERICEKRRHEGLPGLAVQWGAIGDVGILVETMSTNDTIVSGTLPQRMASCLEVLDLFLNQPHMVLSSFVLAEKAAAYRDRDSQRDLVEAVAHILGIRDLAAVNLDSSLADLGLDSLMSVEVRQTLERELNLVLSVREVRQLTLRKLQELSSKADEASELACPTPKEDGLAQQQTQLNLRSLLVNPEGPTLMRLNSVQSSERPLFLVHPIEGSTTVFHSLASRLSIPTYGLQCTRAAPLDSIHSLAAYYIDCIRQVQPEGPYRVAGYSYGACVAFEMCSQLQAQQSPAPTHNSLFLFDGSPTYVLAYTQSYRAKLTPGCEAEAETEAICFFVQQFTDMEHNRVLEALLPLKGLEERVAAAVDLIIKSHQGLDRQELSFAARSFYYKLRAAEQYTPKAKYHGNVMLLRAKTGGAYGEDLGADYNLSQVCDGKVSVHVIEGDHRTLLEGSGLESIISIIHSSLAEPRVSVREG
Kind of test: LTEA_HepaRG_FASN: Life Technologies and Expression Analysis (LTEA) Assay for Fatty Acid Synthase (FASN) using HepaRG (AID 2283448). To be noted: actives raise or lower the signal; mRNA level, 48 h. In outline:
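In human HepaRG cultures, 48 h chemical exposure (up to 100 uM, 0.5% DMSO) preceded TaqMan qRT-PCR of FASN.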

Read-out in the next test: BCL2L11 (gene 10018)
The test is described as follows: LTEA_HepaRG_BCL2L11: Life Technologies and Expression Analysis (LTEA) Assay for Bcl-2 (BCL2L11) gene using HepaRG (AID 2283473). To be noted: actives raise or lower the signal; mRNA level, 48 h. In outline:
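Read-out is BCL2L11 transcript level by qRT-PCR, normalized to three housekeeping genes and fitted bidirectionally against 0.5% DMSO vehicle. HepaRG cells received chemicals for 48 h in serum-free induction medium, 100 uM down in half-log dilutions.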

Read-out in test [12]: Tumor necrosis factor receptor 1 (TNFRSF1A), TNFRSF1A (gene 7132)
The test is described as follows: LTEA_HepaRG_TNFRSF1A: Life Technologies and Expression Analysis (LTEA) Assay for Tumor necrosis factor receptor 1 (TNFRSF1A) using HepaRG (AID 2283535). To be noted: actives raise or lower the signal; mRNA level, 48 h. In a few lines:
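Read-out is TNFRSF1A transcript level by TaqMan qRT-PCR, normalized to three housekeeping genes, scored as gain or loss of signal versus 0.5% DMSO. Human HepaRG cells received test chemicals for 48 h at up to 100 uM (half-log series).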

The nature of test [13]: STM_H9_NormalizedViability: Cytotoxicity Assessment at 120 hours in the Stemina devTOX quickPredict H9 human embryonic stem cell (hESC)-based Assay (AID 2283784; active = hit-call score of the fitted dose curve at least 0.9, where 1 is the maximum). In a few lines:
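Here, H9 cells received test compound with daily medium renewal. Each plate included methotrexate references (1uM, 5 nM), 0.1% DMSO and media blanks; CellTiter-Fluor RFU was normalized to DMSO.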

Read-out in test [14]: Transforming growth factor beta 1 (TGFb1), TGFB1 (gene 7040)
Kind of test: BSK_KF3CT_TGFb1: BioMAP Diversity Plus: KF3CT Assay for Transforming growth factor beta 1 (TGFb1) Biomarker Activity (AID 2283072). To be noted: actives raise or lower the signal; primary human keratinocytes with fibroblasts. In outline:
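TGF-b1 ELISA on a 24 h dosed co-culture of human keratinocytes and foreskin fibroblasts; cytotoxicity tracked in parallel cultures by SRB staining.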

For test [15], the target named is human CYP2C9, CYP2C9 (gene 1559) (UniProt P11712). The test is described as follows: NVS_ADME_hCYP2C9: NovaScreen (NVS) CYP450-related Enzyme Activity (ADME) Assay for human CYP2C9 (AID 2283108; active = hit-call score of the fitted dose curve at least 0.9, where 1 is the maximum). In outline: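 Fluorescence readout of CYP2C9 activity (SF9-expressed human enzyme) at 0.75 h. The primary screen used 10 uM in duplicate, with concentration-response follow-up for actives; acetonitrile was the negative control.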
Sequence of UniProt P11712 (P11712 whole entry, looked up): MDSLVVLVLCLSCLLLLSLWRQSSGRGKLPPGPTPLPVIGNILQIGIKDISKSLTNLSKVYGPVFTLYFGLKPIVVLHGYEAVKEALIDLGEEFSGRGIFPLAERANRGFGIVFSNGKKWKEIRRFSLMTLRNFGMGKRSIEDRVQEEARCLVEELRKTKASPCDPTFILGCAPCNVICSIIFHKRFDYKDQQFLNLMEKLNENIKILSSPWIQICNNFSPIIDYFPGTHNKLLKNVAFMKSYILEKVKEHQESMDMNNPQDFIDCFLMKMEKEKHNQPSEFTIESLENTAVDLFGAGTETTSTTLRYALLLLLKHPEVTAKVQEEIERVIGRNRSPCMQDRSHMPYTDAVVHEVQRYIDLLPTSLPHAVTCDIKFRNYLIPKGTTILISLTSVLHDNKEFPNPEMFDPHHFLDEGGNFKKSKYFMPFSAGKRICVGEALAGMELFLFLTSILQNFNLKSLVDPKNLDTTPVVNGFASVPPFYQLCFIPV

Read-out in test [16]: catalase (CAT), CAT (gene 847)
Kind of test: LTEA_HepaRG_CAT: Life Technologies and Expression Analysis (LTEA) Assay for catalase (CAT) using HepaRG (AID 2283452).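 Also: TaqMan qRT-PCR signal normalized to ACTB GAPDH and POLR2A housekeeping genes.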 To be noted: actives raise or lower the signal; mRNA level, 48 h. In a few lines: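 Expression of CAT was quantified by TaqMan qRT-PCR with ACTB/GAPDH/POLR2A normalization after 48 h chemical exposure of HepaRG. Eight-point half-log series, top 100 uM, in 0.5% DMSO; gain or loss fitted against vehicle.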

A short description of test [17]: Tanguay_ZF_120hpf_SNOU_legacy: (Legacy) Oregon State University Tanguay Lab 120 Hour Post-fertilization zebrafish Assay for Snout Malformation (AID 2283637; active = hit-call score of the fitted dose curve at least 0.9, where 1 is the maximum). In a few lines: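 Binary snout-malformation call at 120 hpf in wild-type 5D embryos, chorion removed by pronase, under static exposure from 6 hpf at 28C (0.64% DMSO). Embryos dying by 24 or 120 hpf excluded.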

Test [18] is described as follows: ATG_M_06_XSP2: Attagene TRANS-FACTORIAL Multi-Species (XSP2) HepG2 Assay for M06 Transcription Factor (Internal Marker) (AID 2283811; active = hit-call score of the fitted dose curve at least 0.9, where 1 is the maximum). In a few lines:
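Internal-marker reporter transcript, quantified by RT-PCR, 6-FAM labelling, HpaI digestion and capillary electrophoresis, 24 hours after dosing transfected HepG2 cells with 3 nM 6-alpha-fluorotestosterone and 1.5 nM norgestrel present; DMSO baseline.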

Test [19] is described as follows: ATG_M_61_XSP2: Attagene TRANS-FACTORIAL Multi-Species (XSP2) HepG2 Assay for M61 Transcription Factor (Internal Marker) (AID 2283835). In outline:
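Internal background marker, read as RT-PCR/capillary-electrophoresis reporter mRNA 24 h post-dose in transiently transfected HepG2 cells. Androgen receptor stimulated with 3 nM 6-alpha-fluorotestosterone plus 1.5 nM norgestrel; gain of signal versus DMSO analysed.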

The target of test [20] is zebrafish Thyroid Hormone Receptor beta (TRb), thrb (gene 30607) (UniProt Q9PVE4). Kind of test: ATG_zfTRb_XSP2: Attagene TRANS-FACTORIAL Multi-Species (XSP1) HepG2 Assay for zebrafish Thyroid Hormone Receptor beta (TRb) (AID 2283836; active = hit-call score of the fitted dose curve at least 0.9, where 1 is the maximum). In a few lines: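 Multiplexed trans-activation in HepG2 cells, 24 h treatment, with reporter mRNA read by RT-PCR and capillary electrophoresis. Gain-of-signal against DMSO.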
Sequence of UniProt Q9PVE4 (Q9PVE4 whole entry, looked up): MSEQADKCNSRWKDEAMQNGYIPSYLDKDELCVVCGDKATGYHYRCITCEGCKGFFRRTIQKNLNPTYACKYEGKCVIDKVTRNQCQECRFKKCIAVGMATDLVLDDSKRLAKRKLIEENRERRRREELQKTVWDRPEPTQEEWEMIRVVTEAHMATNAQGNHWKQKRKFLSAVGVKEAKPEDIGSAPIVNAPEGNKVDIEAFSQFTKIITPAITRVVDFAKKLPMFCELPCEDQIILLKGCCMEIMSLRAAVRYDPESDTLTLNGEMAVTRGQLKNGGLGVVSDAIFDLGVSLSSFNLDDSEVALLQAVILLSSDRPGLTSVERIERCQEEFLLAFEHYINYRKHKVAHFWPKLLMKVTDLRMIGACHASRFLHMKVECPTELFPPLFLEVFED

Read-out in test [21]: Interleukin-1 alpha (IL1a), IL1A (gene 3552)
The test is described as follows: BSK_LPS_IL1a: BioMAP Diversity Plus: LPS Assay for Interleukin-1 alpha (IL1a) Biomarker Activity (AID 2283080). To be noted: actives raise or lower the signal; primary human HUVEC with PBMC. In a few lines:
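ELISA read-out of IL-1 alpha from a human primary vascular co-culture (endothelium plus PBMC) under LPS, sampled 24 hours post-dosing. Activity was fitted in both directions relative to DMSO controls.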

Read-out in the next test: CYP2C9 (gene 1559)
Kind of test: LTEA_HepaRG_CYP2C9: Life Technologies and Expression Analysis (LTEA) Assay for CYP2C9 using HepaRG (AID 2283484). To be noted: actives raise or lower the signal; mRNA level, 48 h. In outline: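 CYP2C9 transcript level, quantified by TaqMan qRT-PCR against three housekeeping genes, was fitted bidirectionally relative to 0.5% DMSO. HepaRG cultures were treated 48 h, in duplicate, at eight half-log concentrations topping at 100 uM.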

Read-out in test [22]: Cytochrome P450 3A4 (Homo sapiens) (UniProt P08684)
Sequence of UniProt P08684 (P08684 whole entry, looked up): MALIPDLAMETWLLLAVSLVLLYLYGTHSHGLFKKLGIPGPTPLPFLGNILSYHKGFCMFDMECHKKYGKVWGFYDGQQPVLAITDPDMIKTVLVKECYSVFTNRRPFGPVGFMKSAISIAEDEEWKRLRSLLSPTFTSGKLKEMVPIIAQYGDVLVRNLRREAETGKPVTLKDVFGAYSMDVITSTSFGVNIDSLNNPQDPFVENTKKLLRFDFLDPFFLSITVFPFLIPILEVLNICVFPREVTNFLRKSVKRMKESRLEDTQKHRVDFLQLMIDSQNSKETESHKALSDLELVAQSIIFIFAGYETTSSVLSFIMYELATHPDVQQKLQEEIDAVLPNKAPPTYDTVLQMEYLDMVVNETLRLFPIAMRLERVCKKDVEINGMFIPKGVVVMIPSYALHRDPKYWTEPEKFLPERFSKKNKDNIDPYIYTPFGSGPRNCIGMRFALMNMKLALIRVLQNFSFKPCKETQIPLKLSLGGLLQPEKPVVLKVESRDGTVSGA
The test is described as follows: LTEA_HepaRG_CYP3A4: Life Technologies and Expression Analysis (LTEA) Assay for CYP3A4 using HepaRG (AID 2283487). To be noted: actives raise or lower the signal; mRNA level, 48 h. In outline: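 CYP3A4 transcript measured by TaqMan qRT-PCR and normalized to three housekeeping genes after 48 h chemical exposure of human HepaRG cells. Top concentration 100 uM, half-log steps, 0.5% DMSO vehicle; gain or loss fitted against DMSO baseline.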

Sequence of UniProt P19785 (P19785 whole entry, looked up): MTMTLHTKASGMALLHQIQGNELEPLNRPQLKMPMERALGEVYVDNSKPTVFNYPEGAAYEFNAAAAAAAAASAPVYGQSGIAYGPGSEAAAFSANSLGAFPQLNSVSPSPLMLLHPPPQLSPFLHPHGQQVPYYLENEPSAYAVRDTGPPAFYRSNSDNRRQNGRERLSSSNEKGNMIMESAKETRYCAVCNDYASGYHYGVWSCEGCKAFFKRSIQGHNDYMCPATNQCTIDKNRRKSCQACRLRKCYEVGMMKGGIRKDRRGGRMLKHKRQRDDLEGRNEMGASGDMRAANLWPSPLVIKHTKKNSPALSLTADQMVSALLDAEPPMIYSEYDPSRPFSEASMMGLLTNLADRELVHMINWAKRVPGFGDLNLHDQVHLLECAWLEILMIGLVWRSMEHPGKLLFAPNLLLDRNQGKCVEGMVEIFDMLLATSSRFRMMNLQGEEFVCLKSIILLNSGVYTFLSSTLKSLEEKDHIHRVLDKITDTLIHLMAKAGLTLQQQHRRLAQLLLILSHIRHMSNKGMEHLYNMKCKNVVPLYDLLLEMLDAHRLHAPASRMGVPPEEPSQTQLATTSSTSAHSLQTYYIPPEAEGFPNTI

In the case of `CC(CCC(=O)O)(c1ccc(O)cc1)c1ccc(O)cc1`, the result in [1] and in [2] was inactive.
What is called AC50 is the concentration giving half of the maximal activity seen. Regarding `N=C(N)c1ccc(OCCCCCOc2ccc(C(=N)N)cc2)cc1`, the AC50 in test [3] is active: 11.1 µM; in test [4] it was active: 21.9 µM; in [5], active: 4.35 µM; in test [6] it was active: 0.936 µM; in test [8], active: 11 µM; in test [9] it was active: 24.6 µM. The result in test [7] was inactive.
In the case of `CN(C)CCCN(C)CCCN(C)C`, in the test with CD40, CD40 (gene 958), the result was inactive.
With `Cc1cn([C@H]2C=C[C@@H](CO)O2)c(=O)[nH]c1=O`, the outcome (in [10]; in test [11]; with BCL2L11 (gene 10018); in test [12]; in test [13]) was inactive.
As to `CCCCCCCCCCC1CO1` (configuration not stated), in the test with CD40, CD40 (gene 958), the AC50 is active: 31 µM.
`C=CCOCC(O)CCl` (configuration not stated): the outcome in [14] was inactive.
For the compound `CC1(C)NC(=O)N(c2ccc([N+](=O)[O-])c(C(F)(F)F)c2)C1=O`, the outcome with CD40, CD40 (gene 958) was “inactive”; in test [17], “inactive”; in [18], “inactive”; in test [19] it was “inactive”; in [20] it was “inactive”. Moreover, the AC50 is active: 14.4 µM in [15] and active: 80.6 µM in test [16].
Turning to `CCCCCCC(C)OC(=O)COc1nc(F)c(Cl)c(N)c1Cl` (configuration not stated), in test [21], the concentration at half-maximal activity (AC50) was active: 30.7 µM. The compound was called inactive (in the test with CYP2C9 (gene 1559); in test [22]).
